Test results as given in a collection of fitness landscapes (doi:10.1016/j.celrep.2020.107928).
Over roughly 81,000 sequences, “one-hybrid fitness for binding parS DNA” has its median near -0.17; the highest 2% begin near 0.51. Some of the results follow.

B1: Caulobacter ParB omega fusion; a variant is named by its letters at X, in order, B8GW30 (parent)
chain: MESVVVGEPGMSEGRRGLGRGLSALLGEVDAAPAQAPGEQLGGSREAPIEILQRNPDQPRRTFREEDLEDLSNSIREKGVLQPILVRPSPDTAGEYQIVAGERAWRAAQRAGLKTVPIMVRELDDLAVLEIGIIENVQRADLNVLEEALSYKVLMEKFERTQENIAQTIGKSXSHVANXMRLLXLPDEVQSYLVSGELTAXHARAIAAAADPVALAKQIIEGGLSVRETEALARKAPNLSAGKSKGGRPPRVKDTDTQALESDLSSVLGLDVSIDHRGSTGTLTITYATLEQLDDLCNRLTRGI

Variants of: B1
Experiment: one-hybrid fitness for binding parS DNA (scaled: cognate 1, non-cognate 0); higher = stronger binding
Conditions: with parS DNA site
In short: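 In E. coli USO, a HIS3 reporter with its site placed 19 bp from the promoter was used to select Caulobacter ParB variants randomised at four specificity codons. Growth lasted 48 hours at 37°C on histidine-free M9 containing 0.1 mM IPTG and 5 mM 3-AT. Fitness was taken as the log change in variant-to-wild-type read ratio from Illumina sequencing of pre- and post-selection plasmids, rescaled between the non-cognate and cognate sites.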

Row | Variant | one-hybrid fitness for binding parS DNA
1 | MLKQ | ≤ 0.2
2 | PATG | ≤ 0.2
3 | HQRH | ≤ 0.2
4 | SIYR | ≤ 0.2
5 | HDLE | ≤ 0.2
6 | NQTN | ≤ 0.2
7 | EGYT | ≤ 0.2
8 | TDAQ | ≤ 0.2
9 | KQSC | ≤ 0.2
10 | DSTL | ≤ 0.2
11 | RETL | ≤ 0.2
12 | RILA | 0.576
13 | SGVY | ≤ 0.2
14 | GKVG | ≤ 0.2
15 | TSQT | ≤ 0.2
16 | TVYM | ≤ 0.2
17 | HEPF | ≤ 0.2
18 | TCGR | ≤ 0.2
19 | AGRA | ≤ 0.2
20 | GEVW | ≤ 0.2
21 | RYTT | 0.884
22 | AQKT | ≤ 0.2
23 | DMTG | ≤ 0.2
24 | PWNR | ≤ 0.2
25 | LVMR | ≤ 0.2
26 | CQVE | ≤ 0.2

Row | Variant | one-hybrid fitness for binding parS DNA
27 | NNHT | ≤ 0.2
28 | KPPC | ≤ 0.2
29 | PNNY | ≤ 0.2
30 | TSKH | ≤ 0.2
31 | IKTK | ≤ 0.2
32 | NILE | ≤ 0.2
33 | RCKG | 0.89
34 | STNW | ≤ 0.2
35 | SRYN | ≤ 0.2
36 | DSLR | ≤ 0.2
37 | HYMG | ≤ 0.2
38 | DMWG | ≤ 0.2
39 | KAIE | ≤ 0.2
40 | YDPD | ≤ 0.2
41 | RITD | ≤ 0.2
42 | YQRT | ≤ 0.2
43 | HQEM | ≤ 0.2
44 | ANSR | ≤ 0.2
45 | WPQT | ≤ 0.2
46 | DQVW | ≤ 0.2
47 | QQTA | ≤ 0.2
48 | RHTL | ≤ 0.2
49 | KTYC | ≤ 0.2
50 | HCLW | ≤ 0.2
51 | DCIF | ≤ 0.2
52 | PDVP | ≤ 0.2

Row | Variant | one-hybrid fitness for binding parS DNA
53 | VTPI | ≤ 0.2
54 | FNRS | ≤ 0.2
55 | SEMR | ≤ 0.2
56 | MISG | ≤ 0.2
57 | WDGR | ≤ 0.2
58 | GGDQ | ≤ 0.2
59 | DVDY | ≤ 0.2
60 | EHIR | ≤ 0.2
61 | TKTR | ≤ 0.2
62 | QKEW | ≤ 0.2
63 | RIFN | 0.438
64 | SRQS | ≤ 0.2
65 | LIPS | ≤ 0.2
66 | IRDN | ≤ 0.2
67 | PLHY | ≤ 0.2
68 | QVSP | ≤ 0.2
69 | QMVR | ≤ 0.2
70 | KFCC | ≤ 0.2
71 | LQHE | ≤ 0.2
72 | HAMC | ≤ 0.2
73 | QDVH | ≤ 0.2
74 | VAIG | ≤ 0.2
75 | CAPE | ≤ 0.2
76 | MLNG | ≤ 0.2
77 | YKYT | ≤ 0.2
78 | MEAF | ≤ 0.2

Row | Variant | one-hybrid fitness for binding parS DNA
79 | TRMK | ≤ 0.2
80 | PADM | ≤ 0.2
81 | EVWG | ≤ 0.2
82 | NCSN | ≤ 0.2
83 | EFEG | ≤ 0.2
84 | KETR | ≤ 0.2
85 | QGMC | ≤ 0.2
86 | QKVK | ≤ 0.2
87 | SHRG | ≤ 0.2
88 | INTV | ≤ 0.2
89 | SAGR | ≤ 0.2
90 | QTVT | ≤ 0.2
91 | KVVM | ≤ 0.2
92 | PLWG | ≤ 0.2
93 | KLKY | ≤ 0.2
94 | QKSP | ≤ 0.2
95 | FNAT | ≤ 0.2
96 | PEST | ≤ 0.2
97 | YGES | ≤ 0.2
98 | QRSN | ≤ 0.2
99 | EPLM | ≤ 0.2
100 | FDPR | ≤ 0.2
101 | TCIV | ≤ 0.2
102 | KSAQ | 0.228
103 | YSNS | ≤ 0.2
104 | PDKW | ≤ 0.2

Row | Variant | one-hybrid fitness for binding parS DNA
105 | RCCL | ≤ 0.2
106 | YYWC | ≤ 0.2
107 | YGQL | ≤ 0.2
108 | PPLR | ≤ 0.2
109 | HMRT | ≤ 0.2
110 | DRFH | ≤ 0.2
111 | FNIG | ≤ 0.2
112 | AREN | ≤ 0.2
113 | CNTR | ≤ 0.2
114 | HTIA | ≤ 0.2
115 | EAVV | ≤ 0.2
116 | RMLM | 0.363
117 | TEAK | ≤ 0.2
118 | EDFT | ≤ 0.2
119 | FYMV | ≤ 0.2
120 | YTLN | ≤ 0.2
121 | PTGK | ≤ 0.2
122 | TAHG | ≤ 0.2
123 | LTRL | ≤ 0.2
124 | THHS | ≤ 0.2
125 | PGKE | ≤ 0.2
126 | RLYT | 0.943
127 | DVNG | ≤ 0.2
128 | LFRR | ≤ 0.2
129 | HSLE | ≤ 0.2
130 | PVNM | ≤ 0.2

Row | Variant | one-hybrid fitness for binding parS DNA
131 | ITKI | ≤ 0.2
132 | AVQR | ≤ 0.2
133 | QYHS | ≤ 0.2
134 | ERST | ≤ 0.2
135 | HGMR | ≤ 0.2
136 | PCWK | ≤ 0.2
137 | LLPK | ≤ 0.2
138 | RTDW | ≤ 0.2
139 | MPDG | ≤ 0.2
140 | FVWT | ≤ 0.2
141 | SHMM | ≤ 0.2
142 | RVRE | ≤ 0.2
143 | RWNS | 0.926
144 | LQKS | ≤ 0.2
145 | PESE | ≤ 0.2
146 | VPFR | ≤ 0.2
147 | AAMN | ≤ 0.2
148 | VMSY | ≤ 0.2
149 | VGRW | ≤ 0.2
150 | QLLW | ≤ 0.2
151 | MWSR | ≤ 0.2
152 | LDNS | ≤ 0.2
153 | RFDY | 0.443
